Experimental findings from publication PMC4336329 (PLoS ONE, 2015) are described below.

About 2,200 (0.71%) of roughly 310,000 compounds showed an effect of 50% or more. The effect is printed as a negative number. The list shows a part of the results.

Sequence of human ether-à-go-go-related gene (hERG) potassium channel (Q12809 whole entry, looked up): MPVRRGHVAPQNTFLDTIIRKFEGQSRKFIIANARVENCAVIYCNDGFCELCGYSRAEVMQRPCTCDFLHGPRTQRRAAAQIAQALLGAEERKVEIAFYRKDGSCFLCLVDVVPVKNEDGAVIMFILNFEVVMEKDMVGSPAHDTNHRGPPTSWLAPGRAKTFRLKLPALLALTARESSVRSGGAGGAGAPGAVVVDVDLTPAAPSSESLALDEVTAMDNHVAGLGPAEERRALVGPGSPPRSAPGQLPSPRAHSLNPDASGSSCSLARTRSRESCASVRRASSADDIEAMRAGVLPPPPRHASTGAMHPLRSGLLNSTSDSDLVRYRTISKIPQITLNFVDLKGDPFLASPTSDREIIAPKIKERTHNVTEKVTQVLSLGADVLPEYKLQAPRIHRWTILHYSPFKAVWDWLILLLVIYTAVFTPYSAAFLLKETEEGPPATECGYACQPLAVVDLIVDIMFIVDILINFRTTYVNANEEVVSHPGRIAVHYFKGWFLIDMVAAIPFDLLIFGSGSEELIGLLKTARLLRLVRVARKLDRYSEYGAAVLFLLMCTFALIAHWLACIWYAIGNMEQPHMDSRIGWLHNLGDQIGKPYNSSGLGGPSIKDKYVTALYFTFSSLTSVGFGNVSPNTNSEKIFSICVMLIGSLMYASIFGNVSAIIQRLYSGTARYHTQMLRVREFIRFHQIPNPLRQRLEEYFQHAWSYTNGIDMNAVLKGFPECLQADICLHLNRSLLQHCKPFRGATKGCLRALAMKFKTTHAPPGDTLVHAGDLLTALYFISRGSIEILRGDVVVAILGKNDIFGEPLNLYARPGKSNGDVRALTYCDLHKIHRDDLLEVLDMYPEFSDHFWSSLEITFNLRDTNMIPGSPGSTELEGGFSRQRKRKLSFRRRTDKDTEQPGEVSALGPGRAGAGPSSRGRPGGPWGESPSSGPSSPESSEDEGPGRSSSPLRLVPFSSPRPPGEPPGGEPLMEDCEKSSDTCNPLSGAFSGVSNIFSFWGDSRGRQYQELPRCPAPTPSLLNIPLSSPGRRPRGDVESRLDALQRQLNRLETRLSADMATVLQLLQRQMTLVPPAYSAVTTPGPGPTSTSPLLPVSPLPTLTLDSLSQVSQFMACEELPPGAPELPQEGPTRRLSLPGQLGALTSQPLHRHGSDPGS

The test concerns the target human ether-à-go-go-related gene (hERG) potassium channel (human, UniProt Q12809). Description: primary screen, population patch clamp on CHO cells stably expressing hERG.
Turning to `O=C(COC(=O)c1ccc(Br)cc1)NCc1ccc(F)cc1`, the “hERG current change (%, negative = inhibition) at 1uM” value is given as -2.07%.
As for `CC1CN(C(=O)C(c2ccccc2)c2ccccc2)CC(C)O1` (stereo not shown), the “hERG current change (%, negative = inhibition) at 1uM” value stood at 11.2%.
Turning to `CC1Cc2ccccc2N1Cc1cc(=O)c(OCC(=O)NCCc2ccccc2)co1` (stereo not shown), the “hERG current change (%, negative = inhibition) at 1uM” value was 16.7%.
On to `COc1ccccc1C(=O)NNC(=O)CCN1C(=O)/C(=C\c2ccccc2)SC1=S`, for which the “hERG current change (%, negative = inhibition) at 1uM” value worked out at 24.6%.
As to `CCNC(=S)N1N=C2c3ccccc3CCC2C1c1ccc(F)cc1` (stereo not shown), the “hERG current change (%, negative = inhibition) at 1uM” value came out at 10.5%.
In the case of `O=C(NCCc1c[nH]c2ccccc12)C(=O)NCC1OCCCN1S(=O)(=O)c1cc(F)ccc1F` (stereo not shown), the “hERG current change (%, negative = inhibition) at 1uM” value was determined as 13.6%.
Turning to `COC(=O)C(c1cc(OC)c(O)c(OC)c1)(N1CCNC(C)C1)C(F)(F)F` (stereo not shown), the “hERG current change (%, negative = inhibition) at 1uM” value came to 6.05%.
As for `O=CN1CCN(C(=O)CC(c2ccccc2)c2cc(Br)ccc2O)CC1` (stereo not shown), the figure is 2.44%; as for `CC(C)c1ccc(/C=C/C(=O)NC2=NCCS2)cc1`, 17%.
On to `Cc1nnc(SCC(=O)Nc2ccc3c(c2)OCCO3)s1`, for which the “hERG current change (%, negative = inhibition) at 1uM” value amounted to 8.1%.
Regarding `CCOc1ccc(N(CC(=O)N2CCOCC2)S(=O)(=O)c2ccc(SC)cc2)cc1`, the “hERG current change (%, negative = inhibition) at 1uM” value is given as 11.1%.
As for `Cc1ccc2[nH]c(=O)c(COC(=O)C3CCCO3)cc2c1` (stereo not shown), the figure is 8.11%; as for `CCCCn1c(N)c(N(CC(C)C)C(=O)CN(C)S(=O)(=O)c2ccc(C)cc2)c(=O)[nH]c1=O`, 4.31%; as for `CCNC(=O)CN(CCc1ccccc1)S(C)(=O)=O`, 18.5%.
Turning to `O=C(CSc1nccn1-c1ccc(Cl)cc1)Nc1ccc2c(c1)OCO2`, the “hERG current change (%, negative = inhibition) at 1uM” value was -7.78%.
Turning to `CC(=O)c1ccc(OCCCC(=O)OCc2nnc(-c3ccc(Cl)cc3)o2)cc1`, the “hERG current change (%, negative = inhibition) at 1uM” value came to 4.87%.
Turning to `Cc1cccc(NC(=S)NC2CC3CCCC(C2)N3Cc2cccs2)c1` (stereo not shown), the “hERG current change (%, negative = inhibition) at 1uM” value is listed as -5.94%.
As for `CCCC(=O)NC1=C(C#N)C2(CCCCC2)Cc2ccccc21`, the figure is 9.37%.
Turning to `O=C(Nc1cccc(-c2cnc3ccccc3n2)c1)C1CC(=O)N(c2ccccc2)C1` (stereo not shown), the “hERG current change (%, negative = inhibition) at 1uM” value is 6.7%.
`COc1ccc(S(=O)(=O)Nc2ccccc2C(F)(F)F)cc1`: the “hERG current change (%, negative = inhibition) at 1uM” value is recorded as 0.27%.
Take `CCOC(=O)c1sc2ncc([N+](=O)[O-])cc2c1N`: the “hERG current change (%, negative = inhibition) at 1uM” value amounted to 7.79%.
For `Cc1ccc(C(C)C)c(Oc2cnccn2)c1` the value was 6.79%; for `COc1ccc(CNC(=O)CCCn2nc(C)n3c(cc4sccc43)c2=O)cc1`, -7.76%.
For the compound `Cc1cc(SCC(=O)NCCC2=CCCCC2)nc2ccccc12`, the “hERG current change (%, negative = inhibition) at 1uM” value is reported as 3.55%.
As for `Cc1occc1C(=O)N/N=C/c1ccc(-c2cccc([N+](=O)[O-])c2)o1`, the “hERG current change (%, negative = inhibition) at 1uM” value was found to be 11.2%.
As for `CC(C)CN(CC(C)C)S(=O)(=O)N1CCC(C(=O)NCc2ccc(F)cc2)CC1`, the figure is 13.6%; as for `Cc1ccc(C2=NOC(C)(c3nnc(-c4ccc(Cl)cc4)o3)C2)cc1` (stereo not shown), 9.37%.
Take `Cc1ccc(C)c(S(=O)(=O)NCc2ccc(C(=O)NCc3ccccn3)cc2)c1`: the “hERG current change (%, negative = inhibition) at 1uM” value came to 8.81%.
For `O=C(NCCS(=O)(=O)N1CCN(c2ccccc2F)CC1)c1cccc(Br)c1`, the “hERG current change (%, negative = inhibition) at 1uM” value is listed as 10%.
For the compound `CCCS(=O)(=O)N1CCCC(c2nc(-c3ccc(OC)cc3)no2)C1` (stereo not shown), the “hERG current change (%, negative = inhibition) at 1uM” value is on record as 1.64%.
On to `O=C(Cn1c2[n+](c3ccc(C(F)(F)F)cc31)CCCCC2)c1ccc2c(c1)OCCO2.[Cl-]`, for which the “hERG current change (%, negative = inhibition) at 1uM” value is 7.8%.
In the case of `NS(=O)(=O)c1ccc(CCNC(=O)c2ccc3c(c2)N(Cc2ccccc2)CCS3)cc1`, the “hERG current change (%, negative = inhibition) at 1uM” value was 10.2%.
For the compound `CC(=O)Nc1cc(NC(=O)C2C3C=CC(C3)C2C(=O)O)ccc1Cl` (stereo not shown), the “hERG current change (%, negative = inhibition) at 1uM” value amounted to 13.9%.
On to `CN(C(=O)COC(=O)c1ccc(S(=O)(=O)N2CCCC2)cc1)c1ccccc1`, for which the “hERG current change (%, negative = inhibition) at 1uM” value was 2.35%.
As for `CN(C(=O)c1ccc2c(c1)OCO2)C1(C(=O)NC2CCCCC2)CCCCC1`, the figure is 5.67%.
On to `CC(C)(C)NC(=O)C1CC1(c1ccccc1)c1ccccc1` (stereo not shown), for which the “hERG current change (%, negative = inhibition) at 1uM” value is listed as 20.3%.
Turning to `Cc1nc(Br)c(Br)c(C)c1Br`, the “hERG current change (%, negative = inhibition) at 1uM” value is listed as 12.9%.
In the case of `NS(=O)(=O)c1ccc(CCNC(=O)COC(=O)CCSc2ccc(Cl)cc2)cc1`, the “hERG current change (%, negative = inhibition) at 1uM” value was -2.4%.
`O=C(COC(=O)Cc1ccc(Cl)cc1)Nc1cc(S(=O)(=O)N2CCOCC2)ccc1N1CCCC1`: the “hERG current change (%, negative = inhibition) at 1uM” value worked out at 9.65%.
As to `COc1ccc(N(C)S(=O)(=O)c2ccc3c(c2)NC(=O)CC(=O)N3)c(OC)c1`, the “hERG current change (%, negative = inhibition) at 1uM” value worked out at 11.7%.
For `N#C/C(=C\c1cc([N+](=O)[O-])ccc1Cl)C(N)=O` the value was 12%.
Take `CN(C)CCNC(=O)c1cc(Sc2ccc(F)cc2)nc2ccccc12`: the “hERG current change (%, negative = inhibition) at 1uM” value is reported as -15.7%.
Regarding `CCCNC(=O)C(Cc1ccccc1)NC(=O)c1ccc(-c2ccccc2)cc1` (stereo not shown), the “hERG current change (%, negative = inhibition) at 1uM” value is given as 0.371%.
